# In PubChem BioAssay AID1508642 (National Center for Advancing Translational Sciences (NCATS), 2021):
# Out of some 43,000 compounds screened, about 200 (0.47%) were called active. About 12% were inconclusive and are not listed. The call rests on the fitted dose curve; in most records, active means well fitted cell-killing curve with a large enough effect; inconclusive means small, poorly fitted or top-dose-only effect, or effect the other way; inactive means flat fitted curve, though single readings scatter. The list shows a part of the results.
# Assay: Cell viability qHTS assay in S16 Pmp22-F2sN cells; further: nearly all actives have a fitted effect of over 65% in size
# Details: S16 Pmp22-F2sN Schwann cells (luciferase reporters placed in the Pmp22 gene) viability, CellTiter-Glo, 24 h; series mostly up to 57.5 µM; activity change, negative = cytotoxicity: at the top concentration
# Outline: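 Luminescence from CellTiter-Glo, read by CCD camera after a 15 min room-temperature incubation, served as the viability signal. Reporter Schwann cells (S16 Pmp22-F2sN) had been treated with pin-transferred compounds for 24 h at 37C.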
# On the % scale 0 is the no-effect control and ±100 the full control effect.
row,SMILES,"activity change, negative = cytotoxicity"
1,Cc1cccn2c3c(c(=O)nc12)C(c1ccc(F)cc1)CC(=O)N3 (stereo not given),inactive: -0.186%
2,CCCN(C(=O)c1c(C)oc2ncnc(N3CCOCC3)c12)c1ccc(Cl)c(Cl)c1,inactive: 1.82%
3,O=S(=O)(NCC(c1ccco1)N1CCN(c2ccccc2)CC1)c1ccccc1 (stereo not given),inactive: -3.41%
4,CCOc1ccc(Cn2nnc(C(=O)Nc3ccc(Cl)cc3)c2N)cc1,inactive: -5.48%
5,COc1cc(OC)cc(-c2cc3nc(C)c(CCC(=O)Nc4ccccc4OC)c(C)n3n2)c1,inactive: -0.678%
6,O=C(CN(c1ccc(Cl)c(C(F)(F)F)c1)S(=O)(=O)c1ccccc1)Nc1cccnc1,inactive: -7.08%
7,COCCNC(=O)Cn1c(=O)c2cccn2c2ccc(F)cc21,inactive: 4.49%
8,N#Cc1ccccc1CSc1nnc2ccc3ccccc3n12,inactive: -1.69%
9,COCc1c(Br)c(C)nc2sc3c(=O)n(-c4cccc(Br)c4)nnc3c12,inactive: -1.29%
10,CCN(CC)CCNC(=O)c1cn(CC)c2ccc(S(=O)(=O)N(C)C3CCCCC3)cc2c1=O,inactive: 8.72%
11,Cn1c(C(=O)N2CCC(C(=O)NCCc3ccccc3)CC2)cc2sccc21,inactive: -0.828%
12,CC(NC(=O)c1ccco1)c1nc(-c2ccccc2)no1 (stereo not given),inactive: 21.4%
13,Cc1cc(=O)n(CC(=O)NC(C)c2ccccc2)c2c1c(C)nn2-c1cccc(F)c1 (stereo not given),inactive: -11.1%
14,Cc1ccc(C)c(-n2nnc(-c3nc(-c4ccccc4C)no3)c2C)c1,inactive: -1.59%
15,COc1ccc(-c2nn(-c3ccc(C)cc3)c3c2cnc2ccc(C)cc23)cc1OC,inactive: 28.3%
16,COc1ccc(CCNc2nc3cc(OC)c(OC)cc3c3nc(-c4ccccc4)nn23)cc1OC,inactive: 1.93%
17,CCOc1ccc(-c2nc(CSCC(=O)NCc3ccc(C)cc3)c(C)o2)cc1,inactive: -10.9%
18,COC(=O)c1cc(NC(=O)c2sc3ccccc3c2Cl)cc(C(=O)OC)c1,inactive: 24.5%
19,COC(=O)c1cc2occc2n1CC(=O)Nc1ccc(C)cc1Cl,inactive: -8.56%
20,O=C(NCC(c1cccnc1)N1CCN(Cc2ccccc2)CC1)C(=O)Nc1cccc(Cl)c1 (stereo not given),inactive: -29%
21,O=C(O)c1cccc(-n2cnc3cccnc32)c1,inactive: 15.7%
22,CCCN1CCN(CCCNC(=O)C(CC)n2nc(C)n3c(cc4occc43)c2=O)CC1 (stereo not given),inactive: 13.4%
23,COc1ccc(CCNC(=O)CCCn2nc(C)c3sc4ccccc4c3c2=O)c(OC)c1,inactive: 14.4%
24,CCOc1ccc(NC(=O)Cn2c(=O)n(CCCS(=O)(=O)C3CCCCC3)c(=O)c3ccccc32)cc1,inactive: -3.51%

row,SMILES,"activity change, negative = cytotoxicity"
1,Cc1cccc(NC(=O)CCNS(=O)(=O)c2ccc3c(c2)CCN3C(=O)C2CC2)c1,inactive: -3.92%
2,CCOC(=O)C1CCN(C(c2ccc(C)cc2)c2c(O)cc(C)n(CCOC)c2=O)CC1 (stereo not given),inactive: 5.14%
3,Cc1ccc(NC(=O)Cn2cc(C(=O)C3CCCCC3)c3ccccc32)cc1,inactive: -1.34%
4,COc1ccc(N2CCN(C(=O)C3CCN(S(=O)(=O)c4cn(C)cn4)CC3)CC2)cc1,inactive: -19.2%
5,Cc1cccc(N(C)C(=O)Cc2c(C(=O)O)[nH]c3ccccc23)c1,inactive: -7.67%
6,Cc1ccc(-n2ncc3c(N4CCC(Cc5ccccc5)CC4)ncnc32)cc1C,inactive: 12.5%
7,Cc1ccc(OC(=O)CSc2nnc(-c3ccc4c(c3)OCO4)o2)cc1,inactive: -4.1%
8,Cc1ccc(C(=O)Nc2ccccc2)cc1S(=O)(=O)Nc1ccccc1,inactive: -5.66%
9,Cc1ccc(NC(=O)C2CCC(CNS(=O)(=O)c3cccc4nsnc34)CC2)c(Cl)c1 (stereo not given),inactive: 0.44%
10,O=C(Cc1ccccc1)Nc1sc2c(c1C(=O)Nc1ccc(Br)cc1)CCCC2,inactive: 0.154%
11,COCCCn1c(-c2ccc(S(=O)(=O)N3CCOCC3)cc2)csc1=Nc1ccccc1,inactive: -1.09%
12,CC1(c2ccc(Cl)cc2)CC(C)(C)N(C(=O)c2cccc(F)c2)c2ccccc21 (stereo not given),inactive: -13.6%
13,COc1ccc(CNC(=O)c2cc3sccc3n2Cc2ccc(C)cc2)cc1,inactive: -2.23%
14,COc1ccccc1NC(=O)Cn1c(=O)n(CC(=O)NCc2ccccc2Cl)c(=O)c2sccc21,inactive: -19.6%
15,COc1ccc(C(=O)Oc2c(Sc3ccc(C)cc3)c(C)nn2C(C)(C)C)cc1OC,inactive: 0.545%
16,O=C(c1ccc2c(c1)N(Cc1ccc(Cl)cc1)C(=O)c1ccccc1S2=O)N1CCCCC1 (stereo not given),inactive: 14.2%
17,Cc1ccc(C(=O)Oc2cc(-c3ccc4c(c3)OCO4)cc(=O)c3c(C)oc(C)c23)cc1,inactive: -18.3%
18,Cc1ccc(C(=O)NC2(C(F)(F)F)N=C(c3ccccc3)N(Cc3ccccc3)C2=O)cc1 (stereo not given),inactive: -15.3%
19,CC(=O)c1ccc(NS(=O)(=O)c2ccc(-n3cccn3)cc2)cc1,inactive: 3.51%
20,Cc1ccccc1OCCSc1nc2ccc(NC(=O)c3cccs3)cc2s1,inactive: -11%
21,Cn1c(=O)cc(SCC(=O)N2CCN(c3ccccc3F)CC2)c2ccc(Cl)cc21,inactive: 0.335%
22,COCCCNC(=O)CSc1nc2cc3c(cc2c(=O)n1CCCC(=O)NCc1ccc2c(c1)OCO2)OCO3,inactive: -1.29%
23,CCn1nc(-c2ccccc2)c(-c2ccccc2)c(C(=O)Nc2ccc(NC(C)=O)cc2)c1=O,inactive: -2.64%
24,Cc1cc(C)cc(Oc2nc3ccccn3c(=O)c2/C=C(\C#N)c2nc3ccccc3s2)c1,inactive: 13.5%

row,SMILES,"activity change, negative = cytotoxicity"
1,Cc1ccc(-c2csc(=Nc3ccccc3)n2Cc2ccc3c(c2)OCO3)cc1,inactive: -1.59%
2,Cc1ccc(Cn2ccnc2SCC(=O)Nc2nnc(C)s2)cc1,inactive: 4.53%
3,COc1ccc(OC)c(NC(=O)Nc2c(C)n(C)n(-c3ccccc3)c2=O)c1,inactive: 8.54%
4,CCc1ccccc1NC(=O)C(C)n1c(=O)cc(C)c2c(C)nn(-c3ccccc3)c21 (stereo not given),inactive: 1.26%
5,COC(=O)c1ccc(CSc2nc3c([nH]c4ccccc43)c(=O)n2-c2cccc(Cl)c2)o1,inactive: 13.2%
6,CCOC(=O)C1CCCN(C(=O)Cn2ncc3c4ccccc4n(Cc4ccccc4)c3c2=O)C1 (stereo not given),inactive: 3.4%
7,CCN(CC)S(=O)(=O)c1ccc2c(c1)nc(CN(C)C(=O)Nc1ccc(C)c(F)c1)n2C,inactive: -2.87%
8,CCc1ccccc1NC(=O)CN1C(=O)CCSc2ccc(S(=O)(=O)N3CCCC3)cc21,inactive: -0.138%
9,O=C(OCC1CCCO1)c1ccc2c(c1)N(Cc1ccccc1)C(=O)c1ccccc1S2(=O)=O (stereo not given),inactive: 4.43%
10,COc1ccc(NC(=O)c2sc3nc(C(F)(F)F)cc(C)c3c2N)cc1OC,inactive: 18.8%
11,Cc1ccc(NC(=O)c2nc(S(C)(=O)=O)ncc2N(Cc2ccco2)Cc2cccs2)cc1C,inactive: -2.05%
12,COc1ccc(N2CCN(C(=O)COCc3cc(-c4ccc5c(c4)OCO5)on3)CC2)cc1,inactive: 14%
13,O=C(Nc1ccc(C(=O)OCc2cc(=O)n3nc(C4CC4)sc3n2)cc1)c1cccc(F)c1,inactive: 16.5%
14,CCN(c1ccccc1)S(=O)(=O)c1ccc(NC(=O)c2cc(=O)c3ccccc3o2)cc1,inactive: -17.3%
15,Fc1ccc(Nc2ncnc3c2nc2n3CCCCC2)c(F)c1,inactive: 24.8%
16,COCCCNC(=O)c1ccc2c(c1)nc(C)n2-c1cccc(C)c1,inactive: 18.8%
17,Cc1c(C(=O)OC2CCCCC2)[nH]c2c1C(=O)CC(c1ccc(C(C)(C)C)cc1)C2 (stereo not given),inactive: 0.0324%
18,CCC(=O)N1CCc2cc(Br)cc(S(=O)(=O)CCC(=O)N3CCN(c4cc(C)ccc4C)CC3)c21,inactive: 6.91%
19,CCCc1nnc(NC(=O)c2cc(=O)c3cc(C)c(C)cc3o2)s1,inactive: -17.1%
20,O=C(Nc1ccc(F)cc1)C1CCN(S(=O)(=O)c2ccc3c(c2)CCCN3C(=O)C2CCC2)CC1,inactive: 7.41%
21,CCOC(=O)c1c(S(=O)(=O)N2CCC(C(=O)Nc3ncccc3C)CC2)c(C)n(C)c1C,inactive: 0.324%
22,CCOC(=O)c1cc(-c2ccc(OC)cc2)n(CCC(=O)NC2CCCCC2)c1C,inactive: -23.5%
23,Cc1ccc(Cn2c(=O)n(CCCCC(=O)NCc3ccccc3Cl)c(=O)c3ccccc32)cc1,inactive: -0.965%
24,O=c1[nH]c2ccc(NCc3ccc(-c4ccccc4)o3)cc2[nH]1,inactive: -9.21%

row,SMILES,"activity change, negative = cytotoxicity"
1,Cc1cccc(OCC(=O)Nc2ccccc2C(=O)OCc2cc(=O)n3nc(C)sc3n2)c1,inactive: 3.69%
2,CCOc1ccc(NC(=O)CCCc2nnc3n(C)c(=O)c4sccc4n23)cc1,inactive: -1.5%
3,O=C(NCc1ccccc1F)C(=O)NCC(c1ccco1)S(=O)(=O)c1cccs1 (stereo not given),inactive: 0.0049%
4,O=C(CSc1nc(-c2ccccc2)nc2c1Cc1ccccc1O2)N1CCCCC1,inactive: 14.4%
5,CC1=C(C(=O)Nc2ccccc2)C(c2cccc(Cl)c2)n2nc(SCC(=O)c3ccc(C)cc3)nc2N1 (stereo not given),inactive: 0.824%
6,Cc1ccc(CCNC(=O)c2cc3c(-c4ccccc4F)nn(C)c3s2)cc1,inactive: 1.59%
7,COc1ccc(OC)c(NC(=O)c2cn(CC(C)C)c(=O)c3cc(OC)c(OC)cc23)c1,inactive: -11.4%
8,O=C(Nc1ccc2oc(-c3ccc4ccccc4c3)nc2c1)c1ccc(Cl)c(Cl)c1,inactive: 3.43%
9,O=C(Nc1ccc(Br)cc1F)N1CCC(CN2CCc3ccccc3C2)CC1,inactive: -13.4%
10,COC(=O)c1cc(Cl)ccc1NC(=O)CSc1ncc(S(=O)(=O)c2ccc(Br)cc2)c(=O)[nH]1,inactive: -3.59%
11,COc1ccc(C(=O)COC(=O)CCCC(=O)Nc2cc(C(F)(F)F)ccc2Cl)cc1,inactive: 10.4%
12,CC(C)CC(=O)Nc1ccccc1OCc1cc(=O)n2ccccc2n1,inactive: 9.67%
13,CC(=O)N1CCc2c(sc3c2c(=O)n(-c2cc(Cl)ccc2C)c(=O)n3Cc2ccccc2F)C1,inactive: 3.07%
14,O=C(NCCc1ccc(Cl)cc1)c1cc(-c2ccc(Cl)cc2)n[nH]1,inactive: 0.026%
15,Cc1ccc(CNC(=O)CCCc2nnc3n(C)c(=O)c4sccc4n23)cc1,inactive: 3.73%
16,Cc1ccc(NC(=O)C(=O)NCC(c2ccc3c(c2)OCO3)N2CCOCC2)cc1C (stereo not given),inactive: -4.62%
17,CCC(C)NC(=O)c1ccc2nc(CCc3ccccc3)oc2c1 (stereo not given),inactive: -7.76%
18,COc1ccc(OCC(=O)OCc2cc(=O)n3nc(C4CC4)sc3n2)cc1,inactive: -8.98%
19,CCCCOC(=O)c1ccc(NC(=O)c2cc(-c3cccs3)on2)cc1,inactive: -4.52%
20,Cc1ccc(Nc2c(-c3ccc(C)s3)nc3ncccn23)cc1,inactive: -5.41%
21,CCOC(=O)c1c(NC(=O)/C=C/c2ccc(C)cc2)sc2c1CCCC2,inactive: 5.86%
22,CCOC(=O)c1cnc2cc(F)c(F)cc2c1Nc1ccccc1O,inactive: 7.35%
23,Cn1c(=O)c2c(nc(NCCc3ccccc3)n2Cc2ccc(Cl)cc2)n(C)c1=O,inactive: -22.3%
